According to PubChem BioAssay AID360 (National Center for Advancing Translational Sciences (NCATS), 2006):
Screen size: about 48,000 compounds; about 550 (1.1%) were called active. About 4% were inconclusive and are not listed. Rule as the data show it: active = potency below about 15 µM; inconclusive = mostly about 16 µM to 33 µM; inactive = weaker than that. This is one part of the list.

These compounds were tested against Lysosomal acid glucosylceramidase (Homo sapiens) (UniProt P04062) (assay: Glucocerebrosidase). Details: purified enzyme, resorufin glucoside fluorescence (screen aimed at inhibitors), 20 min.
UniProt P04062, sequence (P04062 whole entry, looked up): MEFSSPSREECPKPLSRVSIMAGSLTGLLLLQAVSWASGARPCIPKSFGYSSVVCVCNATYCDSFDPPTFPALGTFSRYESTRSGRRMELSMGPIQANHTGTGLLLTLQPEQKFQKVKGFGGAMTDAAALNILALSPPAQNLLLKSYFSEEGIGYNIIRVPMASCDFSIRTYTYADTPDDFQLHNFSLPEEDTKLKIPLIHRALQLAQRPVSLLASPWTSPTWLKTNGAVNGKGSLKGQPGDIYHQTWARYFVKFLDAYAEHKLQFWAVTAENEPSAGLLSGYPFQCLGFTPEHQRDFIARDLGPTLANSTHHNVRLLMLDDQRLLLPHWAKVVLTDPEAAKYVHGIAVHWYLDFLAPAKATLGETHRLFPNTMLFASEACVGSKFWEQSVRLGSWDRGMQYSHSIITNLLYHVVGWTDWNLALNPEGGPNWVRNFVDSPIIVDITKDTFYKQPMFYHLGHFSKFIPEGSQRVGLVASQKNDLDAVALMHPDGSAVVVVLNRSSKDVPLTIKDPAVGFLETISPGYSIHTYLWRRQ
In short: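 Normal human glucocerebrosidase (0.2 nM final) was assayed with resorufin β-D-glucopyranoside (30 uM final) in 50mM citric acid/KH2PO4, 10mM sodium taurocholate, 0.01% tween-20, pH 5.9. Compounds were titrated; fluorescence (Ex 548, Em 600) read after 20 min at RT.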
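Also: the screen sought inhibitors.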
Potency is read from the fitted curve at half-maximal effect.

Potency, active:
COC(=O)c1sccc1NC(=O)Cn1nnc(-c2ccc(C)cc2)n1 15.2 µM

Potency, inactive:
CCOC(=O)N1CCN(C(=O)c2ccc3nc(C)sc3c2)CC1 > 76.9 µM
Cc1occc1C(=O)NC(C)c1ccc2c(c1)OCO2 (centres undefined) > 76.9 µM
CCOc1cccc(C(=O)Nc2nc(-c3ccc(S(=O)(=O)N4CCOCC4)cc3)cs2)c1 > 76.9 µM
O=C(NCC1CCCO1)c1cc(-c2ccncc2)nc2ccc(S(=O)(=O)N3CCOCC3)cc12 (centres undefined) > 76.9 µM
COc1ccc(CC(=O)Nc2ccc(-c3nnc(-c4ccccc4)o3)cc2)cc1OC > 76.9 µM
c1csc(-c2ncc3ccccn23)c1 > 76.9 µM
CC(=O)Nc1ccc(NC(=O)C2CCCN(c3nnc(-n4cccc4)s3)C2)cc1 (centres undefined) > 76.9 µM
CC(=O)N1CCc2cc(Br)cc(S(=O)(=O)NCCCN3CCC(C)CC3)c21 > 76.9 µM
O=S(=O)(c1ccc(-c2ccccc2)cc1)N1CCOCC1 > 76.9 µM
CC1(C)Cc2c(sc3nc(SCC(=O)O)[nH]c(=O)c23)CO1 > 76.9 µM
O=C(Nc1cccc2nsnc12)c1ccc2c(c1)OCCO2 > 76.9 µM
CCOC(=O)c1c(NC(=O)c2ccc(S(=O)(=O)N3CCOCC3)cc2)sc2c1CCN(C)C2
Cc1cc(NC(=O)CCC(=O)N(c2ccccc2)C(C(=O)NC2CCCC2)c2ccncc2)no1 (centres undefined) > 76.9 µM
Cc1ccc(C(C)C)c(OCC(=O)Nc2ccc(N3CCN(S(C)(=O)=O)CC3)cc2)c1 > 76.9 µM
COc1ccc(OCc2nnc(SC(C)C(=O)Nc3nccs3)n2-c2ccccc2)cc1 (centres undefined) > 76.9 µM
Cc1ccc(NC(=O)CSc2nnc(Cn3cnc4ccccc43)o2)cc1 > 76.9 µM
COC(=O)c1ccccc1NC(=O)CN1C(=O)CSC1=O > 76.9 µM
Cc1ccc(-c2nnc(SC(C)C#N)n2N)cc1 (centres undefined) > 76.9 µM
Cc1cc(C)cc(N2C(=O)N(c3ccccc3C)C3CS(=O)(=O)CC32)c1 (centres undefined) > 76.9 µM
CC(C)(C)NC(=O)NC(=O)COC(=O)Cn1c(C(F)(F)F)nc2ccccc21 > 76.9 µM
Nc1nc(COc2ccc3ccccc3c2)cs1 > 76.9 µM
O=C(Nc1ccccn1)Nc1cccs1 > 76.9 µM
O=C(NCc1ccccn1)C1CCCN(Cc2cnn(-c3ccccc3)c2-n2cccc2)C1 (centres undefined) > 76.9 µM
COC(=O)CC(C(=O)Nc1cc(C(=O)OC)cc(C(=O)OC)c1)N1CCN(C)CC1 (centres undefined) > 76.9 µM
CCN(CC)CCCN1C(=O)C(=O)/C(=C(/O)c2ccc3c(c2)OCCO3)C1c1ccc(C)o1 (centres undefined) > 76.9 µM
O=C(CCn1nc(-c2ccc(Cl)cc2)ccc1=O)NCCCN1CCCCCC1 > 76.9 µM
COc1ccc(NC(=O)CSc2nnc(Cc3cccn3C)n2-c2ccc(C)cc2)cc1OC > 76.9 µM
Cc1ccc(SCCCn2cncn2)cc1 > 76.9 µM
CCOC(=O)C1CCCN(C(=O)C2CCN(Cc3nc(-c4ccc(Cl)cc4)oc3C)CC2)C1 (centres undefined) > 76.9 µM
CCOc1ccc(OCC)c(S(=O)(=O)N2CCCCC2)c1 > 76.9 µM
CC(C)OC(=O)CSc1nnc(-c2ccc(Cl)cc2Cl)n1N > 76.9 µM
O=C(CCn1c(=O)c2ccccc2n(Cc2cc(=O)n3ccccc3n2)c1=O)NCc1ccco1 > 76.9 µM
COc1ccccc1NC(=O)N(Cc1ccccc1)c1ccccn1 > 76.9 µM
COCCn1nnnc1C(c1cc2ccc(OC)cc2[nH]c1=O)N1CCc2ccccc2C1 (centres undefined) > 76.9 µM
O=C1CCCC(O)=C1C=Nc1ccc2c(c1)oc1ccccc12 > 76.9 µM
Cn1c(=O)c2cc(S(=O)(=O)NCCC(=O)NCC3CCCO3)ccc2n(C)c1=O (centres undefined) > 76.9 µM
O=C(CN(CCc1ccccc1)C(=O)CNS(=O)(=O)c1ccc(F)cc1)NCC1CCCO1 (centres undefined) > 76.9 µM
CCCc1cc(=O)n2[nH]c(SCc3ccccc3)nc2n1 > 76.9 µM
O=C(CN(Cc1ccco1)C(=O)CCC(=O)Nc1ccccn1)NCCc1ccccc1 > 76.9 µM
COc1cc2[nH]c(=O)n(CCCCCC(=O)NCCCN3CCCC3=O)c(=O)c2cc1OC > 76.9 µM
Cc1ccc(NC(=O)CS(=O)CC(=O)NC2CCN(Cc3ccccc3)CC2)c(C)c1 (centres undefined) > 76.9 µM
Cc1ccc(C)c(NC(=O)C2CC(=O)N(C(C)C)C2)c1 (centres undefined) > 76.9 µM
O=C(CSc1oc(-c2ccco2)nc1S(=O)(=O)c1ccc(F)cc1)NCC1CCCO1 (centres undefined)
